Test results published in PubChem BioAssay AID662 (National Center for Advancing Translational Sciences (NCATS), 2007).
Among all 71,000 compounds or so, about 1,800 (2.5%) were called active. Inconclusive means that the source gave no clear call. Such entries were picked first, then a sample of the others. Calls come from the whole dose curve; as a rule, active = well fitted activation curve with a large enough effect in the signal ratio, with a control signal flat (not every such curve was filed as active); inconclusive = small, poorly fitted or top-dose-only effect, or effect the other way, or a change in a side signal; inactive = flat fitted curve, though single readings scatter; the % refers to the signal ratio. Potencies of inconclusive entries are doubtful fits and often do not repeat.
Potency is the fitted concentration of half-maximal effect; tags give direction and shape of the fitted curve.

Assay: Cell signaling CRE-BLA (Fsk stim); for activity change, negative = inhibition: % of control where 0% means no effect
Conditions: CHO CRE-bla reporter (cAMP response element driving beta-lactamase), forskolin EC10, beta-lactamase ratio; activity change, negative = inhibition: at 38.2 µM (top of the series) unless noted
How it was run: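 The 460nm/530nm emission ratio after CCF4 loading defined %Activity, from which AC50 values were obtained. CRE-bla CHO cells received compound dilution series together with an EC10 level of NKH 477 for 3 hours at 37 degrees Celsius.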
For `COC(=O)CC1=C(C(=O)OC)C2(C(=O)Nc3c(C)cccc32)C(C#N)=C(N)O1` (stereo not given), the activity change, negative = inhibition was inconclusive: 11.6%.
In the case of `COc1cccc2c1cc([N+](=O)[O-])c1c(C(=O)O)cc3c(c12)OCO3`, the activity change, negative = inhibition is reported as inconclusive: -14.5%.
With `CCc1c(C(=O)OC)ncc2[nH]c3cc(OC)c(OC)cc3c12` the Potency was active: 2.51 µM.
With `Fc1ccccc1N1CCN(Cc2c(F)cccc2F)CC1` the “activity change, negative = inhibition” value was inactive: -6.61%.
In the case of `CCCNC(=O)c1c(N)n(CC2CCCO2)c2nc3ccccc3nc12` (stereo not given), the Potency is reported as inconclusive: 12.6 µM [rising, partial curve].
For `CC[C@H]1CN2CCc3cc(OC)c(OC)cc3[C@H]2C[C@@H]1C[C@H]1NCCc2c1[nH]c1ccc(O)cc21`, the activity change, negative = inhibition was inactive: -13.2% [at 7.6 µM].
In the case of `c1cc2c(cc1[C@H]1OC[C@H]3[C@@H]1CO[C@H]3c1ccc3c(c1)OCO3)OCO2`, the activity change, negative = inhibition is reported as inconclusive: -10.3%.
In the case of `O=c1[nH]c(=O)n(Cc2ccccc2)c(O)c1C=Nc1ccc(CN2CCOCC2)cc1`, the activity change, negative = inhibition is reported as inconclusive: 1.79%.
With `Cc1noc(C)c1C(=O)N1CCC[C@@]2(CCN(CC(C)C)C2)C1` the activity change, negative = inhibition was inconclusive: 5.16%.
For `CC1(C)CN=C(NCc2ccccc2Cl)S1`, the “activity change, negative = inhibition” value was inactive: 12.8%.
In the case of `Cc1nc2ccc(Cl)cn2c1P(=S)(N1CCOCC1)N1CCOCC1`, the activity change, negative = inhibition is reported as inconclusive: -14.6%.
With `O=C(O)C(C(=O)O)P(=S)(S)c1ccccc1` (stereo not given) the activity change, negative = inhibition was inactive: 5.24% [at 7.6 µM].
With `Cn1ccnc1P(=S)(c1nccn1C)c1nccn1C` the activity change, negative = inhibition was inconclusive: -7.76%.
With `CCCC(=O)Cl` the “activity change, negative = inhibition” value was inactive: -5.73%.
With `O=C(O)[C@@H]1C[C@H]1[C@@H](NP(=O)(c1ccccc1)c1ccccc1)c1ccccc1` the “activity change, negative = inhibition” value was inactive: 2.73%.
For `C=CCn1c(O)c(C(C)=NCc2cccnc2)c(=O)[nH]c1=O`, the Potency was inconclusive: 25.1 µM [rising, single point].
In the case of `C[C@H](NC(C)(C)C)C(=O)c1cccc(Cl)c1`, the activity change, negative = inhibition is reported as “inactive”.
For `C#CCN(C)[C@H](C)Cc1ccccc1`, the activity change, negative = inhibition was inconclusive: -19.2%.
In the case of `O=S(=O)(Cl)c1ccccc1`, the “activity change, negative = inhibition” value is reported as inactive: -7.35%.
In the case of `C[C@@H](Cc1ccc(Cl)cc1Cl)NO`, the activity change, negative = inhibition is reported as inactive: -3.01% [at 7.6 µM].
In the case of `Cc1cccc(-n2c(O)c(C=NCCCN3CCOCC3)c(=O)[nH]c2=O)c1C`, the activity change, negative = inhibition is reported as inconclusive: 4.48%.
In the case of `CC1=CC(C)C(COC(N)=O)(COC(N)=O)C(C)C1` (stereo not given), the activity change, negative = inhibition is reported as inconclusive: 10.4%.
With `O=C1CC(N2CCC(n3c(=O)[nH]c4ccccc43)CC2)C(=O)N1Cc1ccccc1` (stereo not given) the activity change, negative = inhibition was inconclusive: -5.44%.
For `Cc1cccc(-n2c(C)nc3cc(C(=O)N4CCC5(CC4)OCCO5)ccc32)c1`, the Potency was inconclusive: 12.6 µM [rising, partial curve].
For `NC(=O)Nc1cccc(C(F)(F)F)c1`, the activity change, negative = inhibition was inconclusive: -0.851%.
